Measurements reported in ChEMBL document CHEMBL4888484, “Replenishing the malaria drug discovery pipeline: Screening and hit evaluation of the MMV Hit Generation Library 1 (HGL1) against asexual blood stage Plasmodium falciparum ,using a nano luciferase reporter read-out” (2022).
The whole screen tested about 150,000 compounds, of which about 540 (0.36%) showed an effect of 50% or more. This is one part of the list.

test system: Plasmodium falciparum; assay: Primary screen in NF54 nanoGlo assay, in single point, at 2uM, 72h; a lower Z score goes with more inhibition; format: functional, Erythrocyte; settings: timepoint 72 hour

Compound	% Inhibition	Z score
CCOCc1nc(-c2c(C)ncc3c2CCN(Cc2[nH]cnc2C)C3)no1	-4%	0.63
CO[C@@]1(C(=O)Nc2cnc3c(Br)cccn23)CCOC1	27%	-3.1
CC1C(=O)C(C(=O)Nc2ccccc2F)C(=O)N1Cc1ccccc1 (stereo unspecified)	7%	-1.24
CCCCN1CCN([C@@H](C)C(=O)NC2CCCC2)CC1=O	-10%	1.16
O=C(Nc1ccccc1OCCOc1ccccc1)[C@H]1CC12CCNCC2	-5%	0.93
CC[C@]1(O)CCN(Cc2cc(=O)c3cccc(Cl)c3[nH]2)C[C@@H]1O	-3%	0.45
O=C(Cn1[nH]c2ccccc2c1=O)N1CCCCCCC1	-15%	2.54
COc1ccc(C)cc1NC(=O)OCC(F)(F)F	-8%	1.29
CC(C)NC(=O)c1nc(-n2cnnc2)ccc1Br	0%	-0.06
Cn1cccc1CNC(=O)Nc1cccc(-c2cn3c(n2)CCCC3)c1	-3%	0.48
CN(CC1(C)COC1)C(=O)c1csc2ccccc12	-5%	0.73
CCOCCCNC(=O)N1CCN(c2nnc(C)c3c(C)n(-c4ccc(C)cc4)nc23)CC1	1%	-0.27
CC[C@@H]1NC(=O)N(CC2(CC#N)CC2)C1=O	-4%	0.4
COc1cccc(CNC(=O)Nc2c(-c3ccncc3)[nH]c3ccc(Cl)cc23)c1	11%	-1.77
CCC(=O)Nc1ccc(Cl)c(OC)c1	-5%	0.68
OC[C@H]1CN(Cc2cncc(F)c2)CCN1Cc1cncc(F)c1	-9%	1.07
CC1(C)CCC(=O)[C@@H](CNC(=O)OC(C)(C)C)C1	-2%	0.22
Cc1cc(Nc2nnn[nH]2)nc(Cc2ccccc2)n1	-4%	0.38
O=C1CC[C@@H](C(=O)N(C2CCCC2)C2CC2)N1	2%	-0.3
CCc1ccc2[nH]c3c(c(=O)c2c1)CN(CC(=O)NCc1ccc(Cl)cc1)CC3	1%	-0.07
Cc1ccc(OCCN2CC[C@@]3(C2)NC(=O)N(C(C)C)C3=O)cc1	15%	-1.69
CCC1(CNC(=O)c2coc3cc(F)ccc23)COC1	-8%	1.04

Compound	% Inhibition	Z score
Cc1cc(CN2CCC(CNC(=O)c3cncs3)CC2)n[nH]1	-8%	1.13
C=CCC1(CC=C)CCCN1C(=O)[C@H]1CCC(=O)N(CCN2CCOCC2)C1	-9%	1.24
Cc1ncc(CN(C)CC(=O)N2CCC(O)CC2)s1	-10%	1.32
COc1ccccc1C1(CNC(=O)CS(=O)(=O)Nc2ccc(N3CCCCC3)cc2)CCCC1	-6%	1.26
CC(C(=O)Nc1ccc(Cl)cn1)N1CCCC(c2ccn[nH]2)C1 (stereo unspecified)	5%	-0.83
O=C(c1ccc2c(c1)CCCC2)N1CCC[C@]2(CC=CCC2)C1	-5%	0.44
C[C@@H]1CN(CC(=O)NCCCn2ccnn2)C[C@H](C)O1	-10%	1.12
O=C([C@@H](F)C(F)(F)F)N(Cc1ccccc1)C1CC1	-13%	1.74
Cc1[nH]ccc(=O)c1OCC(=O)NC1CCN(Cc2ccccc2)CC1	-15%	1.92
COc1ccc(CNC(=N)NS(=O)(=O)c2ccc(OC)c(OC)c2)c(OC)c1	36%	-0.99
COCCNC(=O)CN1C(=O)CCn2nc(-c3ccc(C)cc3)cc21	4%	-0.49
Cc1cc(C(=O)N2CCC3(CC2)C[C@@H](c2ccccc2)C(=O)N(C)C3)no1	3%	-0.39
O=C([C@@H]1COc2cc(S(=O)(=O)Nc3ccc(F)cc3)ccc2O1)N1CCCCC1	-14%	2.32
COc1cc(F)ccc1[C@H](C(=O)O)N1CCC(Oc2cccc(F)c2)CC1	-10%	1.94
c1cnn(-c2ccc(CN3C[C@@H]4CC[C@H]3CN(C3CCOCC3)C4)cc2)c1	8%	-1.33
CC(C)CN(C(=O)c1nc(=O)[nH][nH]1)C1CC1	8%	-0.67
c1coc(-c2nc(COc3ccc4oc5ccccc5c4c3)cs2)c1	-2%	0.24
Cc1ccsc1C(=O)N1CCCn2cc(-c3ccccc3)nc21	0%	0.01
O=S(=O)(c1ccc(-c2cc(C(F)(F)F)[nH]n2)o1)N1CCCC[C@H]1c1nccs1	-4%	0.81
CCN(C(=O)c1ccnc(C)n1)[C@@H](Cc1ccc(C)cc1)C1CC1	8%	-1.01
O=C(NC[C@H]1CCCC2(CCC2)O1)c1c(Cl)oc2ccccc12	10%	-1.33
